The record followed here is the supplement of paper PMC8007513.

For this assay, the system named is Trichoderma virens ATCC 9645. Kind of assay: growth yield (OD600) with compound + IPBC relative to untreated control; higher = less growth inhibition. Conditions: compound concentration: 100 uM, IPBC concentration: 200 ng/ml. In a few lines:
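Growth appears as means of duplicate screens, relative to the control containing neither agent. To obtain it, OD600 was read on a BioTek EL800 at 40 h and 72 h. The cultures were 100 μl aliquots in 96-well plates at 30 °C, holding Trichoderma virens ATCC 9645 spores at 15,000 spores ml^−1 in potato dextrose broth, library compounds at 100 μM final, and, in some wells, a biocide at 200 ng ml^−1.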

The structures appear in SMILES notation. Structures can show the parent of a compound that is named as a salt. ± gives the standard error. Among all 1,300 compounds or so, about 130 (10%) showed an effect of 50% or more. The list shows a part of the results, in another mix than the full data.

Turning to `CC[N+](C)(C)Cc1ccccc1Br` [Bretylium tosylate] + CCCCNC(=O)OCC#CI [3-iodo-2-propynyl butylcarbamate (IPBC)], the growth yield (40 h) amounted to 101 ± 1.6% and the growth yield (72 h) turned out to be 100.9 ± 0.63%.
For `C[N+](C)(C)CCCCCC[N+](C)(C)C` [Hexamethonium dibromide dihydrate] + CCCCNC(=O)OCC#CI [3-iodo-2-propynyl butylcarbamate (IPBC)] the same measures were 89.1 ± 3.6% and 92.3 ± 3.4%.
Take `Cc1cc2c(cc1S(N)(=O)=O)S(=O)(=O)CCC2` [Meticrane] + CCCCNC(=O)OCC#CI [3-iodo-2-propynyl butylcarbamate (IPBC)]: the growth yield came out at 91.8 ± 6.7% (40 h) and 91.7 ± 3.8% (72 h).
For `NCCNCCNCCNCCN` [Tetraethylenepentamine pentahydrochloride] + CCCCNC(=O)OCC#CI [3-iodo-2-propynyl butylcarbamate (IPBC)] the same measures were 86.57 ± 0.79% and 97 ± 1.6%.
Taken in the same sequence, the figures for `CC(C)c1ccc2oc3nc(N)c(C(=O)O)cc3c(=O)c2c1` [Amlexanox] + CCCCNC(=O)OCC#CI [3-iodo-2-propynyl butylcarbamate (IPBC)] were 80.7 ± 3.8% and 88.4 ± 0.94%.
Taken in the same sequence, the figures for `CC1(C)S[C@@H]2[C@H](NC(=O)[C@H](NC(=O)N3CCNC3=O)c3ccccc3)C(=O)N2[C@H]1C(=O)O` [Azlocillin sodium salt] + CCCCNC(=O)OCC#CI [3-iodo-2-propynyl butylcarbamate (IPBC)] were 103 ± 13% and 99.9 ± 5.8%.
As for `CCCN1C[C@H](CSC)C[C@@H]2c3cccc4[nH]cc(c34)C[C@H]21` [Pergolide mesylate] + CCCCNC(=O)OCC#CI [3-iodo-2-propynyl butylcarbamate (IPBC)], the growth yield by setting is: (40 h) 71.95 ± 0.16%; (72 h) 89.14 ± 0.63%.
Taken in the same sequence, the figures for `CSc1ccc2c(c1)C(N1CCN(C)CC1)Cc1ccccc1S2` (stereo not given) [Methiothepin maleate] + CCCCNC(=O)OCC#CI [3-iodo-2-propynyl butylcarbamate (IPBC)] were 2.06 ± 0.16% and 1.78 ± 0.1%.
As for `Cc1c(C)c2c(c(C)c1O)CCC(C)(COc1ccc(CC3SC(=O)NC3=O)cc1)O2` (stereo not given) [Troglitazone] + CCCCNC(=O)OCC#CI [3-iodo-2-propynyl butylcarbamate (IPBC)], the growth yield (40 h) was found to be 100 ± 3.2% and the growth yield (72 h) worked out at 94.2 ± 2.5%.
For `Cc1cc(C(C)(C)C)c(O)c(C)c1CC1=NCCN1` [Oxymetazoline hydrochloride] + CCCCNC(=O)OCC#CI [3-iodo-2-propynyl butylcarbamate (IPBC)], the growth yield was determined as 83.5 ± 2.2% (40 h) and 94.7 ± 1.8% (72 h).
Taken in the same sequence, the figures for `COc1ccc(CCN(C)CCCC(C#N)(c2ccc(OC)c(OC)c2)C(C)C)cc1OC` (stereo not given) [Verapamil hydrochloride] + CCCCNC(=O)OCC#CI [3-iodo-2-propynyl butylcarbamate (IPBC)] were 74.2 ± 11% and 73.6 ± 7.8%.
For `Cc1onc(-c2ccccc2)c1-c1ccc(S(N)(=O)=O)cc1` [Valdecoxib] + CCCCNC(=O)OCC#CI [3-iodo-2-propynyl butylcarbamate (IPBC)] the same measures were 84.98 ± 0.16% and 97.64 ± 0.94%.
As to `CCCc1cc(=O)[nH]c(=S)[nH]1` [Propylthiouracil] + CCCCNC(=O)OCC#CI [3-iodo-2-propynyl butylcarbamate (IPBC)], the growth yield (40 h) amounted to 90.1 ± 11% and the growth yield (72 h) was determined as 93 ± 6.4%.
Taken in the same sequence, the figures for `C[N+]1(CCCCC[N+]2(C)CCCC2)CCCC1` [Pentolinium bitartrate] + CCCCNC(=O)OCC#CI [3-iodo-2-propynyl butylcarbamate (IPBC)] were 88 ± 1.6% and 96.7 ± 0.84%.
Taken in the same sequence, the figures for `Oc1ncnc2[nH]ncc12` [Allopurinol] + CCCCNC(=O)OCC#CI [3-iodo-2-propynyl butylcarbamate (IPBC)] were 93.4 ± 4.8% and 94.28 ± 0.32%.
With `CCCCCCC[N+](CC)(CC)CCCCc1ccc(Cl)cc1` [Clofilium tosylate] + CCCCNC(=O)OCC#CI [3-iodo-2-propynyl butylcarbamate (IPBC)], the growth yield reads like this: (40 h) 13.5 ± 5.9%; (72 h) 74.46 ± 0.42%.
For `CNCCCC1c2ccccc2C=Cc2ccccc21` [Protriptyline hydrochloride] + CCCCNC(=O)OCC#CI [3-iodo-2-propynyl butylcarbamate (IPBC)] the same measures were 71.6 ± 3.6% and 92.3 ± 2.7%.
Taken in the same sequence, the figures for `C[C@]12CCC(=O)C=C1CC[C@@H]1[C@@H]2[C@@H](O)C[C@@]2(C)[C@H]1CC[C@]2(O)C(=O)CO` [Hydrocortisone base] + CCCCNC(=O)OCC#CI [3-iodo-2-propynyl butylcarbamate (IPBC)] were 80.1 ± 1.6% and 89.98 ± 0.21%.
For `Nc1nc(Cl)nc2c1ncn2[C@H]1C[C@H](O)[C@@H](CO)O1` [Cladribine] + CCCCNC(=O)OCC#CI [3-iodo-2-propynyl butylcarbamate (IPBC)] the same measures were 95 ± 11% and 96.1 ± 7.5%.
In the case of `COc1cccc2c1C(=O)c1c(O)c3c(c(O)c1C2=O)C[C@@](O)(C(=O)CO)C[C@@H]3O[C@H]1C[C@H](N)[C@H](O)[C@H](C)O1` [Doxorubicin hydrochloride] + CCCCNC(=O)OCC#CI [3-iodo-2-propynyl butylcarbamate (IPBC)], the growth yield is, setting by setting: (40 h) 8.1 ± 1.1%; (72 h) 34.8 ± 20%.
For `CC1(C)S[C@@H]2[C@H](NC(=O)[C@H](N)c3ccc(O)cc3)C(=O)N2[C@H]1C(=O)O` [Amoxicillin] + CCCCNC(=O)OCC#CI [3-iodo-2-propynyl butylcarbamate (IPBC)] the same measures were 77.4 ± 0.79% and 88.8 ± 3.5%.
Taken in the same sequence, the figures for `N=C(N)c1ccc(OCCCCCOc2ccc(C(=N)N)cc2)cc1` [Pentamidine isethionate] + CCCCNC(=O)OCC#CI [3-iodo-2-propynyl butylcarbamate (IPBC)] were 2.7 ± 0.48% and 2.1 ± 0.42%.
Taken in the same sequence, the figures for `Cn1c(NCCN(CCO)CCCc2ccc([N+](=O)[O-])cc2)cc(=O)n(C)c1=O` [Nifekalant] + CCCCNC(=O)OCC#CI [3-iodo-2-propynyl butylcarbamate (IPBC)] were 101 ± 17% and 97.4 ± 8.9%.
Turning to `Fc1ccc(C(c2ccc(F)cc2)N2CCN(C/C=C/c3ccccc3)CC2)cc1` [Flunarizine dihydrochloride] + CCCCNC(=O)OCC#CI [3-iodo-2-propynyl butylcarbamate (IPBC)], the growth yield turned out to be 3.81 ± 0.32% (40 h) and 3.78 ± 0.42% (72 h).
Regarding `Clc1ccc(CSC(Cn2ccnc2)c2ccc(Cl)cc2Cl)cc1` (stereo not given) [Sulconazole nitrate] + CCCCNC(=O)OCC#CI [3-iodo-2-propynyl butylcarbamate (IPBC)], the growth yield turned out to be 3.02 ± 0.16% (40 h) and 2.41 ± 0.1% (72 h).
